# Laboratory results as given in PubChem BioAssay (NCATS).
# The list shows a part of the results. The main result of the screen is listed elsewhere. These columns were measured beside it and carry no call. Words in brackets tell the shape of the fitted curve; partial curves, single points and poor fits give uncertain potencies.
# Test: qHTS drug screen for cell cycle checkpoint inhibitors in PARPi-resistant BRCA-mutant ovarian cancer cell lines. (AID 1963452)
# Details: PEO1/OlaR viability, CellTiter-Glo luminescence, 96 h; measured here: PEO1 parental viability
# Summary of the method: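 PEO1, PEO4 and PEO1/OlaR ovarian cancer cells, 600 per well, exposed 96 h at 37C to a dilution series. Viability read by CellTiter-Glo luminescence, normalized to DMSO and empty wells; activity summarized as Z-AUC.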
# Tags tell the direction and shape of the fitted curve.
row,Structure (SMILES),AC50
1,CN(Cc1ccccc1)C(=O)c1ccc(S(=O)(=O)Nc2ccccc2)cc1,"0.138 µM [falling, full curve]"
2,CNC(=O)c1ccc(C)c(-n2c(C)cc(OCc3ccc(F)cc3F)c(Br)c2=O)c1,"2.75 µM [falling, full curve, poor fit]"
3,CN1C(=O)C(Cc2c[nH]c3ccccc23)NC1=S (stereo not given),"0.138 µM [rising, full curve, poor fit]"
4,CC(C)(C)c1cc(C(=O)O)c(NC(=O)Nc2ccc3[nH]ncc3c2)s1,"21.9 µM [rising, single point]"
5,CC1(N)CCN(c2cccnc2NC(=O)c2nc(-c3ncccc3C(F)(F)F)cnc2N)CC1,"4.9 µM [falling, partial curve]"
6,Cc1cc2c(F)c(Oc3ncnn4cc(OC[C@@H](C)OC(=O)[C@H](C)N)c(C)c34)ccc2[nH]1,"0.436 µM [falling, full curve]"
7,Cc1ccccc1C(C(=O)NC1CCCCC1)N(C(=O)CNc1ccc(C#N)cc1)c1cccc(F)c1 (stereo not given),"21.9 µM [rising, single point]"
8,Nc1n[n+]([O-])c2ccccc2[n+]1[O-],"24.5 µM [falling, single point]"
9,COc1cc2ncnc(Nc3ccc(O)c(Br)c3)c2cc1OC,"13.8 µM [falling, partial curve, poor fit]"
10,COc1ccc2[nH]c(S(=O)Cc3ncc(C)c(OC)c3C)nc2n1 (stereo not given),"0.0549 µM [falling, full curve, poor fit]"
11,C=C[C@@H]1CN2CCC1C[C@H]2[C@H](O)c1ccnc2ccc(OC)cc12 (stereo not given in full),"13.8 µM [falling, partial curve, poor fit]"
12,COc1ccc(Cl)c(Nc2ncnc3cc(OCC4CCN(C)CC4)c(OC)cc23)c1,"15.5 µM [falling, single point]"
13,CCOC(=O)[C@@]1(CCCCCCOc2ccc(Cl)cc2)CO1,"17.4 µM [falling, single point]"
14,NC(=O)C1CCCc2c1[nH]c1ccc(Cl)cc21 (stereo not given),"0.0195 µM [rising, full curve, poor fit]"
15,OCc1ccccc1O[C@@H]1O[C@H](CO)[C@@H](O)[C@H](O)[C@H]1O,"21.9 µM [rising, partial curve, poor fit]"
16,C[C@]12CCCN1CC1=NNC(=O)c3cc(F)cc4[nH]c2c1c34,"1.95 µM [falling, partial curve]"
17,CC(C)NCCCn1c(Sc2cc(Cl)cc(Cl)c2)nc2c(N)ncnc21,"0.0616 µM [falling, full curve]"
18,O=C(NCC(=O)N1CC[C@H](NC2CCC(O)(c3ccc(-c4ncccn4)cn3)CC2)C1)c1cccc(C(F)(F)F)c1 (stereo not given in full),"0.436 µM [rising, single point]"
19,CCS(=O)(=O)N1CCC(C(C)n2c(C)c(C(=O)NCc3c(OC)cc(C)[nH]c3=O)c3ccccc32)CC1 (stereo not given),"6.92 µM [rising, partial curve, poor fit]"
20,COCCCOc1ccnc(CS(=O)c2nc3ccccc3[nH]2)c1C (stereo not given),"6.92 µM [falling, partial curve, poor fit]"
21,O=C(O)CCCCN(CCc1ccccc1OCc1ccc(CCc2ccccc2)cc1)Cc1ccc(C(=O)O)cc1,"21.9 µM [falling, single point]"

# Same assay, conditions: PEO1/OlaR viability, CellTiter-Glo luminescence, 96 h; measured here: PEO4 viability
row,Structure (SMILES),AC50
1,C[C@]12CC[C@@H]3c4ccc(O)cc4C[C@@H](CCCCCCCCCS(=O)CCCC(F)(F)C(F)(F)F)[C@H]3[C@H]1CC[C@H]2O (stereo not given in full),"1.95 µM [falling, full curve, poor fit]"
2,Cc1cc(-c2cc(OC(=O)c3ccccc3)ccc2Cl)cc2nnc(Nc3ccc(OCCN4CCCC4)cc3)nc12,"8.48 µM [falling, single point]"
3,CCOC(=O)C1=CCCCC1S(=O)(=O)Nc1ccc(F)cc1Cl (stereo not given),"17.4 µM [falling, partial curve, poor fit]"
4,COc1cc(OCc2cccc(-c3ccccc3)c2C)cc(OC)c1CN1CCCC[C@H]1C(=O)O,"24.5 µM [falling, single point]"
5,O=C(O)c1cn(-c2ccc(F)cc2)c2cc(N3CCNCC3)c(F)cc2c1=O,"21.9 µM [falling, single point]"
6,NCCOc1cc(C(=O)Nc2cc(OCCN)c3ccccc3n2)nc(C(=O)Nc2cc(OCCN)c3ccccc3n2)c1,"6.16 µM [falling, partial curve]"
7,Nc1nc(OC(c2ccc(-c3cccc(F)c3)cc2)C(F)(F)F)cc(-c2ccc(C[C@H](N)C(=O)O)cc2)n1 (stereo not given in full),"24.5 µM [falling, partial curve, poor fit]"
8,Cc1nc2c([nH]1)CCN(C(=O)c1ccc(NC(=O)c3ccccc3-c3ccccc3)cc1)c1ccccc1-2,"19.5 µM [falling, single point]"
9,COc1c(N2CCNC(C)C2)c(F)cc2c(=O)c(C(=O)O)cn(C3CC3)c12 (stereo not given),"24.5 µM [falling, single point]"
10,CC[C@H]1OC(=O)[C@H](C)C(=O)[C@H](C)[C@@H](O[C@H]2O[C@H](C)C[C@H](N(C)C)[C@H]2O)[C@](C)(OC)C[C@@H](C)C(=O)[C@H](C)[C@H]2N(CCCCn3cnc(-c4cccnc4)c3)C(=O)O[C@]12C,"0.0039 µM [rising, full curve, poor fit]"
11,Cc1cc2c(cc1CC(=O)c1sccc1S(=O)(=O)Nc1onc(C)c1Cl)OCO2,"7.76 µM [falling, partial curve, poor fit]"
12,Cc1cc(C)cc(NC(=O)Cc2ccc(OC(C)(C)C(=O)O)cc2)c1,"0.0039 µM [rising, full curve, poor fit]"
13,CC1(C(=O)O)CCC2(C)CCC3(C)C(=CC(=O)C4C5(C)CCC(OC6OC(C(=O)O)C(O)C(O)C6OC6OC(C(=O)O)C(O)C(O)C6O)C(C)(C)C5CCC43C)C2C1 (stereo not given),"0.0389 µM [rising, full curve, poor fit]"
14,CC(C)(C)S(=O)(=O)c1ccc2nccc(Nc3n[nH]c4ccc(F)cc34)c2c1,"15.5 µM [falling, partial curve, poor fit]"
15,Nc1nc(N)nc(-c2cc(Cl)ccc2Cl)n1,"9.77 µM [rising, partial curve, poor fit]"
16,Cn1cc(/C=C/C(=O)c2cccc(F)c2)cc1/C=C/C(=O)NO,"27.5 µM [falling, partial curve, poor fit]"
17,CN(C)CCOc1ccc(-c2nc(-c3ccc4c(c3)CC/C4=N\O)c(-c3ccncc3)[nH]2)cc1,"15.5 µM [falling, single point]"
18,Cc1ccc2cc(-c3c(C)ccc(C(=O)c4c(-c5ccccc5)n(C)n(-c5ccccc5)c4=O)c3N)ccc2n1,"13.8 µM [falling, single point]"
19,O=C1[C@H](CC[C@H](O)c2ccc(F)cc2)[C@@H](c2ccc(O)cc2)N1c1ccc(F)cc1,"15.5 µM [falling, partial curve, poor fit]"
